Screen size: about 370,000 compounds; about 150 (0.041%) were called active. Inconclusive means that the source gave no clear call. Such entries were picked first, then a sample of the others. Calls come from the whole dose curve; as a rule, active = well fitted inhibition curve with a large enough effect; inconclusive = small, poorly fitted or top-dose-only effect; inactive = flat fitted curve, though single readings scatter. No potency is given beside an inconclusive call; the fits are too rough.
Target: Beta-lactamase (Escherichia coli (strain K12)) (UniProt P00811)
Experiment: qHTS Inhibitors of AmpC Beta-Lactamase (assay with detergent); note: nearly all actives have a fitted effect of over 25% in size
Conditions: AmpC hydrolysis of nitrocefin, absorbance 480 nm, 0.01% Triton; series mostly up to 114 µM
Outline: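 AmpC (5.3 nM in the dispensed reagent) in 20 mM phosphate pH 7.0 with 0.01% (detergent screen) or 0.0001% Triton X-100 was preincubated with compounds for 15 min at room temperature. Nitrocefin was then added from an 800 uM solution, and hydrolysis was followed at 480 nm.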
Potency is the fitted concentration of half-maximal effect; tags give direction and shape of the fitted curve.

Chain of UniProt P00811 (P00811 whole entry, looked up): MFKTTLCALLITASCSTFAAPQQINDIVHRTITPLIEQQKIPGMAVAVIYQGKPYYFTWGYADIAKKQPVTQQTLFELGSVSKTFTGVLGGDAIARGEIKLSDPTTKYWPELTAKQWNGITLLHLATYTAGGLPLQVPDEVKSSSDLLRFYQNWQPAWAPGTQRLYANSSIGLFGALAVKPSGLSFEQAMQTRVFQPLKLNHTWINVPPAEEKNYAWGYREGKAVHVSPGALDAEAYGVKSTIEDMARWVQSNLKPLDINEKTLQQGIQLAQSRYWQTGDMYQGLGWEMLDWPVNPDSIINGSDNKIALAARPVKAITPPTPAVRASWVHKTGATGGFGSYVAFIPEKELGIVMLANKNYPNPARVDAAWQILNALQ

Row | Structure (SMILES) | Potency
1 | CNC(=O)Oc1ccc2ncccc2c1 | inconclusive [inhibitor, partial curve, poor fit]
2 | CCOC(=O)c1cnc2ccc(Cl)cc2c1Nc1ccc(N2CCOCC2)cc1 | inactive
3 | O=C(c1ccccc1)c1ccc(CN2C(=O)c3ccccc3C2=O)o1 | inconclusive [inhibitor, full curve, poor fit]
4 | Cc1ccc(C)c(NC(=O)Nc2cccc(-c3cn4cccnc4n3)c2)c1 | inactive
5 | Cc1ccc(C(=O)NCCc2nc3ccccc3[nH]2)cc1[N+](=O)[O-] | inconclusive [inhibitor, partial curve, poor fit]
6 | Clc1cccc(OCCN2CCN(CCOc3cccc(Cl)c3)CC2)c1 | inconclusive [inhibitor, full curve, poor fit]
7 | OC(COc1ccc2ccccc2c1)CN1CCN(c2ccc(F)cc2)CC1 (configuration not stated) | inconclusive [inhibitor, full curve, poor fit]
8 | S=C(NC1CCCC1)N1CCOCC1 | inconclusive [inhibitor, partial curve]
9 | Cc1ccc2c(c1)c1c3n2CCN(CC#N)C3CCC1 (configuration not stated) | inconclusive [inhibitor, partial curve, poor fit]
10 | COc1cc(-n2c(=S)[nH]c3ccccc3c2=O)c(Cl)cc1Cl | inactive
11 | O=C(NCCN1CCOCC1)c1cc([N+](=O)[O-])cc([N+](=O)[O-])c1 | inconclusive [inhibitor, full curve, poor fit]
12 | COc1cc2c(cc1OC)C(C(=O)NCc1ccco1)C(c1cccs1)N(C)C2=O (configuration not stated) | inconclusive [inhibitor, partial curve]
13 | O=C(Cc1ccccc1Cl)Nc1cccnc1 | inactive
14 | Cc1ccc(NC(=O)CS(=O)CC(=O)NC(C)CCc2ccco2)cc1Cl (configuration not stated) | inconclusive [inhibitor, full curve, poor fit]
15 | CCCCn1c(NC(=O)C2CCCCC2)nc2ccccc21 | inactive
16 | Cc1ccc(C(=O)NC2CC(C)(C)NC(C)(C)C2)cc1S(=O)(=O)N1CCCCC1 | inconclusive [inhibitor, partial curve]
17 | O=C(CC(=O)N1CCN(c2ccccn2)CC1)Nc1ccc2nc3n(c(=O)c2c1)CCCCC3 | inconclusive [inhibitor, partial curve, poor fit]
18 | CCN(Cc1ccc(OC)c(COC)c1)CC1CCCN(CCc2cccc(OC)c2)C1 (configuration not stated) | inactive
19 | Cc1ccc(N=C2S/C(=C\c3cn(CC(=O)O)c4ccccc34)C(=O)N2C)cc1 | inconclusive [inhibitor, full curve, poor fit]
20 | CCN1C(=O)[C@H]2[C@@H](c3ccc(SC4CCCCC4)cc3)N3CCCC[C@@]3(C(=O)OC)[C@H]2C1=O | inconclusive [inhibitor, partial curve]
21 | CCOC(=O)Cn1c(=O)oc2cc(S(=O)(=O)NCCCc3ccccc3)ccc21 | inconclusive [inhibitor, full curve, poor fit]
22 | CCN(CC)C(=O)CSc1nc2ccccc2c(=O)n1-c1cccc(OC)c1 | inconclusive [inhibitor, full curve, poor fit]
23 | CN(CC(=O)Nc1ccc(F)cc1)C(=O)Cn1c(=O)oc2ccccc21 | inconclusive [inhibitor, partial curve, poor fit]

Row | Structure (SMILES) | Potency
24 | NS(=O)(=O)c1cccnc1Nc1ccc(Cl)c(Cl)c1 | inconclusive [inhibitor, single point]
25 | Cc1ccc(S(=O)(=O)N(C)Cc2nc(-c3ccccn3)no2)cc1 | inconclusive [inhibitor, single point]
26 | CCOC(=O)c1oc2cccc(O)c2c1C | inconclusive [inhibitor, partial curve]
27 | S=C(Nc1cc(Cl)cc(Cl)c1)NC1CCN(Cc2ccccc2)CC1 | inconclusive [inhibitor, full curve]
28 | CCCCCn1ccc(=N)cc1 | inactive
29 | CCc1nnc(NC(=O)C2CC(=O)N(C3CCCC3)C2)s1 (configuration not stated) | inconclusive [inhibitor, partial curve, poor fit]
30 | Cc1cc(/C=C2\SC(=O)N(CC(=O)Nc3ccccc3F)C2=O)c(C)n1C | inactive
31 | COc1cc(C)c(Br)cc1S(=O)(=O)N1CCOCC1 | inconclusive [inhibitor, partial curve, poor fit]
32 | Cc1cccc(/C=C2\CCC(=C3SCCCS3)C2=O)c1 | inconclusive [inhibitor, full curve]
33 | CC1CN(c2ccc([N+](=O)[O-])c(NCCOc3ccccc3)c2)CCN1 (configuration not stated) | inactive
34 | O=c1c(-c2c(O)cc(O)c3c(=O)cc(-c4ccc(O)cc4)oc23)c(-c2ccc(O)cc2)oc2cc(O)cc(O)c12 | inactive
35 | Cc1ccccc1NC(=O)c1ccc(NC(=O)C2CC(=O)OC23CCCCC3)cc1 (configuration not stated) | inactive
36 | Cc1ccc(Oc2ccc(C(=O)NCc3ccncc3)cc2)cc1 | inconclusive [inhibitor, full curve]
37 | Cc1ccc(OCCNC(=O)CCNS(=O)(=O)c2ccc(C)cc2)cc1 | inconclusive [inhibitor, full curve]
38 | BrC(=C\c1ccccc1)/C=N/N1CCN(c2ccccn2)CC1 | inconclusive [inhibitor, full curve, poor fit]
39 | CCCCN1C(=O)/C(=C/c2ccc(N(C)C)cc2)C(=O)N(Cc2ccco2)C1=O | inconclusive [inhibitor, partial curve]
40 | CC1CCCN(C(=O)Cn2nnc(-c3ccc(F)cc3)n2)C1 (configuration not stated) | inactive
41 | O=C(NC1CCCC1)C1CCCN(S(=O)(=O)c2ccc(F)cc2)C1 (configuration not stated) | inconclusive [inhibitor, partial curve, poor fit]
42 | O=C(OCC(=O)N1CCOCC1)c1ccc2ccccc2c1O | inactive
43 | CCC(CC)c1nnc(NC(=O)CS(=O)(=O)c2ccc(C)cc2)s1 | inconclusive [inhibitor, full curve]
44 | CCn1cc(/C=C(\NC(=O)c2ccccc2)C(=O)N2CCOCC2)c2ccccc21 | inconclusive [inhibitor, full curve, poor fit]
45 | Cc1ccc(CNC(=O)C2CCC(=O)N(C3CCCC3)C2)c(F)c1F (configuration not stated) | inconclusive [inhibitor, full curve, poor fit]
46 | O=C(C1CCN(Cc2cc(Cl)ccc2O)CC1)N1CCN(Cc2ccccc2)CC1 | inconclusive [inhibitor, full curve, poor fit]

Row | Structure (SMILES) | Potency
47 | CC1(C)[N+]([O-])=C2C(=[N+]([O-])C1(C)C)c1ccccc1/C2=N\O | inconclusive [inhibitor, partial curve, poor fit]
48 | COc1cccc(CNC(=O)c2cc3c(cc2Cl)N2CCCCCC2=NS3(=O)=O)c1 | inconclusive [inhibitor, partial curve]
49 | Cc1ccc(/C=N/NC(=O)C(C)NC(=O)c2ccccc2)cc1 (configuration not stated) | inconclusive [inhibitor, single point]
50 | Cc1ccsc1CN1CCc2nc(N3CCN(c4ccccc4F)CC3)ncc2C1 | inactive
51 | CSc1nnc(C)c(/C=C/Nc2ccc(C)cc2)n1 | inconclusive [inhibitor, partial curve, poor fit]
52 | O=C(Nc1ccc(SC(F)F)cc1)c1ccc2nccnc2c1 | inactive
53 | CCN1CCCC(NC(=O)c2scc3c2CCCC3)C1 (configuration not stated) | inconclusive [inhibitor, partial curve, poor fit]
54 | O=C(c1ccc(Cl)cc1)c1oc2ccccc2c1CS(=O)(=O)c1ccccc1 | inconclusive [inhibitor, single point]
55 | Cc1cc(/C=C2/C(=O)NC(=O)N(Cc3ccco3)C2=O)c(C)n1-c1ccccc1 | inconclusive [inhibitor, single point]
56 | COc1ccc(OCC(=O)Nc2cc3oc4ccccc4c3cc2OC)cc1 | inconclusive [inhibitor, partial curve, poor fit]
57 | Cn1nc(C(=O)N2CCN(S(=O)(=O)c3ccccc3)CC2)c2ccccc2c1=O | inconclusive [inhibitor, full curve, poor fit]
58 | O=C1Cc2ccccc2N1c1ccccc1 | inactive
59 | CCOc1ccc(NC(=O)CN2CCN(CC(=O)Nc3ccc(C(N)=O)cc3)CC2)cc1 | inactive
60 | O=[N+]([O-])c1cccc(S(=O)(=O)N2CCCCC2c2cccnc2)c1 (configuration not stated) | inconclusive [inhibitor, partial curve, poor fit]
61 | Cc1cc(O)ccc1Nc1nc(-c2cccnc2)cs1 | inactive
62 | Cc1ccc(-c2cc(C(=O)NCCc3ccc(S(N)(=O)=O)cc3)c3ccccc3n2)cc1 | inconclusive [inhibitor, full curve, poor fit]
63 | CCOc1c(C)cnc2c1c(=O)n(Cc1c(F)cccc1Cl)c(=O)n2C | inactive
64 | O=C(COc1ccccc1Cl)NCCNC(=O)c1cccnc1 | inconclusive [inhibitor, partial curve, poor fit]
65 | CCOC(=O)c1ccccc1NC(=O)COC(=O)CCC1CCCC1 | inconclusive [inhibitor, full curve, poor fit]
66 | O=C(NCCc1ccccc1)C1CCCN1C(=O)Nc1cccc(Cl)c1 (configuration not stated) | inconclusive [inhibitor, full curve, poor fit]
67 | CCN(CC(=O)Nc1ccc(NC(C)=O)cc1)C(=O)c1cccc(Oc2ccccc2)c1 | inconclusive [inhibitor, partial curve, poor fit]

— PubChem BioAssay AID485294 (National Center for Advancing Translational Sciences (NCATS), 2010)
